The other results are listed elsewhere or left out.
Each sequence was assayed against T1, MBP-FoxP1dN (Mus musculus, UniProt P58462 326-579) (assay: PD-seq (MBP pull-down with sequencing); 20 mM Tris-HCl pH 7.5, 100 mM NaCl, 1.5 mM MgCl2, 0.4 uM protein, 0.1 uM dsDNA library, 30 min, room temperature, amylose pull-down; high values mean tight binding). Conditions: protein: recombinant; tags: His6-MBP; chain copies: 2; dsDNA, one strand shown.
T1 sequence: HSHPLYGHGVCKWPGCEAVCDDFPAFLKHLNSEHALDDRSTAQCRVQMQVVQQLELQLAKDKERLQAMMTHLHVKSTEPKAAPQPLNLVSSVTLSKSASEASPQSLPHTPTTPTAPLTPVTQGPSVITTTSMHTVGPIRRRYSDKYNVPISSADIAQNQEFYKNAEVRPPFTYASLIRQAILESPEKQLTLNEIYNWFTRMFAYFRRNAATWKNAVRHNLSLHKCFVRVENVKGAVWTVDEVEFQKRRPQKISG
Summary of the method: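 Amylose resin was used to capture complexes formed during 30 min at room temperature in Tris pH 7.5 buffer with NaCl and MgCl2 between 0.4 µM His6-MBP-tagged mouse FoxP3 or FoxP1 fragment lacking the N-terminus, expressed in E. coli, and 0.1 µM Klenow-filled double-stranded degenerate DNA library. After three washes, the DNA was released with proteinase K, barcoded by PCR and sequenced on Illumina. Binding is pooled-replicate reads-per-million enrichment, pull-down over input.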

Sequence	binding signal
GATGATTGTTCTCCCAGCTGATGAATTAGGTTTCTCGAGTAAACAAATTTTCCTAATCTTTCTGTTCAAGCGCCATCTAC	0.833 RPM ratio (pull-down/input)
GATGATTGTTCTCCCAGCTGATGAATTGTTGGATTCGAGTAAACAAATTTTCCTAATCTTTCTGTTCAAGCGCCATCTAC	1.15 RPM ratio (pull-down/input)
GATGATTGTTCTCCCAGCTGATGAATTCCGAACGTCGAGTAAACAAATTTTCCTAATCTTTCTGTTCAAGCGCCATCTAC	0.791 RPM ratio (pull-down/input)
GATGATTGTTCTCCCAGCTGATGAATTACTCGCATCGAGTAAACAAATTTTCCTAATCTTTCTGTTCAAGCGCCATCTAC	1.18 RPM ratio (pull-down/input)
GATGATTGTTCTCCCAGCTGATGAATTATGTTCATCGAGTAAACAAATTTTCCTAATCTTTCTGTTCAAGCGCCATCTAC	1.04 RPM ratio (pull-down/input)
GATGATTGTTCTCCCAGCTGATGAATTTATTGTATCGAGTAAACAAATTTTCCTAATCTTTCTGTTCAAGCGCCATCTAC	1.6 RPM ratio (pull-down/input)
GATGATTGTTCTCCCAGCTGATGAATTGTGCTGTTCGAGTAAACAAATTTTCCTAATCTTTCTGTTCAAGCGCCATCTAC	1.3 RPM ratio (pull-down/input)
GATGATTGTTCTCCCAGCTGATGAATTGGTGGCGTCGAGTAAACAAATTTTCCTAATCTTTCTGTTCAAGCGCCATCTAC	0.963 RPM ratio (pull-down/input)
GATGATTGTTCTCCCAGCTGATGAATTAGCGCTTTCGAGTAAACAAATTTTCCTAATCTTTCTGTTCAAGCGCCATCTAC	0.991 RPM ratio (pull-down/input)
GATGATTGTTCTCCCAGCTGATGAATTATTAAGCTCGAGTAAACAAATTTTCCTAATCTTTCTGTTCAAGCGCCATCTAC	1.04 RPM ratio (pull-down/input)
GATGATTGTTCTCCCAGCTGATGAATTAACCAGTTCGAGTAAACAAATTTTCCTAATCTTTCTGTTCAAGCGCCATCTAC	0.785 RPM ratio (pull-down/input)
GATGATTGTTCTCCCAGCTGATGAATTGGGCAGCTCGAGTAAACAAATTTTCCTAATCTTTCTGTTCAAGCGCCATCTAC	0.792 RPM ratio (pull-down/input)
GATGATTGTTCTCCCAGCTGATGAATTTCGAAAGTCGAGTAAACAAATTTTCCTAATCTTTCTGTTCAAGCGCCATCTAC	0.883 RPM ratio (pull-down/input)
GATGATTGTTCTCCCAGCTGATGAATTCCTACTATCGAGTAAACAAATTTTCCTAATCTTTCTGTTCAAGCGCCATCTAC	0.879 RPM ratio (pull-down/input)
GATGATTGTTCTCCCAGCTGATGAATTTTTGCTTTCGAGTAAACAAATTTTCCTAATCTTTCTGTTCAAGCGCCATCTAC	1.83 RPM ratio (pull-down/input)
GATGATTGTTCTCCCAGCTGATGAATTTATGATCTCGAGTAAACAAATTTTCCTAATCTTTCTGTTCAAGCGCCATCTAC	1.06 RPM ratio (pull-down/input)
GATGATTGTTCTCCCAGCTGATGAATTAGCGTCTTCGAGTAAACAAATTTTCCTAATCTTTCTGTTCAAGCGCCATCTAC	1.01 RPM ratio (pull-down/input)
GATGATTGTTCTCCCAGCTGATGAATTTCGCTCTTCGAGTAAACAAATTTTCCTAATCTTTCTGTTCAAGCGCCATCTAC	0.79 RPM ratio (pull-down/input)
GATGATTGTTCTCCCAGCTGATGAATTCTCCTACTCGAGTAAACAAATTTTCCTAATCTTTCTGTTCAAGCGCCATCTAC	0.814 RPM ratio (pull-down/input)
GATGATTGTTCTCCCAGCTGATGAATTGGCGAGATCGAGTAAACAAATTTTCCTAATCTTTCTGTTCAAGCGCCATCTAC	0.825 RPM ratio (pull-down/input)

Sequence	binding signal
GATGATTGTTCTCCCAGCTGATGAATTCGTCCCGTCGAGTAAACAAATTTTCCTAATCTTTCTGTTCAAGCGCCATCTAC	0.814 RPM ratio (pull-down/input)
GATGATTGTTCTCCCAGCTGATGAATTCGTTAGATCGAGTAAACAAATTTTCCTAATCTTTCTGTTCAAGCGCCATCTAC	0.907 RPM ratio (pull-down/input)
GATGATTGTTCTCCCAGCTGATGAATTCTCGTTCTCGAGTAAACAAATTTTCCTAATCTTTCTGTTCAAGCGCCATCTAC	0.882 RPM ratio (pull-down/input)
GATGATTGTTCTCCCAGCTGATGAATTATTCGGATCGAGTAAACAAATTTTCCTAATCTTTCTGTTCAAGCGCCATCTAC	0.941 RPM ratio (pull-down/input)
GATGATTGTTCTCCCAGCTGATGAATTATGAGTGTCGAGTAAACAAATTTTCCTAATCTTTCTGTTCAAGCGCCATCTAC	1 RPM ratio (pull-down/input)
GATGATTGTTCTCCCAGCTGATGAATTGGCCGGTTCGAGTAAACAAATTTTCCTAATCTTTCTGTTCAAGCGCCATCTAC	0.774 RPM ratio (pull-down/input)
GATGATTGTTCTCCCAGCTGATGAATTTCAACAATCGAGTAAACAAATTTTCCTAATCTTTCTGTTCAAGCGCCATCTAC	1.36 RPM ratio (pull-down/input)
GATGATTGTTCTCCCAGCTGATGAATTTGTCGATTCGAGTAAACAAATTTTCCTAATCTTTCTGTTCAAGCGCCATCTAC	1.02 RPM ratio (pull-down/input)
GATGATTGTTCTCCCAGCTGATGAATTGATTCTGTCGAGTAAACAAATTTTCCTAATCTTTCTGTTCAAGCGCCATCTAC	1.04 RPM ratio (pull-down/input)
GATGATTGTTCTCCCAGCTGATGAATTTCCATCATCGAGTAAACAAATTTTCCTAATCTTTCTGTTCAAGCGCCATCTAC	0.964 RPM ratio (pull-down/input)
GATGATTGTTCTCCCAGCTGATGAATTCGTACTATCGAGTAAACAAATTTTCCTAATCTTTCTGTTCAAGCGCCATCTAC	0.985 RPM ratio (pull-down/input)
GATGATTGTTCTCCCAGCTGATGAATTCTCCCGGTCGAGTAAACAAATTTTCCTAATCTTTCTGTTCAAGCGCCATCTAC	0.773 RPM ratio (pull-down/input)
GATGATTGTTCTCCCAGCTGATGAATTAAAATACTCGAGTAAACAAATTTTCCTAATCTTTCTGTTCAAGCGCCATCTAC	1.11 RPM ratio (pull-down/input)
GATGATTGTTCTCCCAGCTGATGAATTCGCTAATTCGAGTAAACAAATTTTCCTAATCTTTCTGTTCAAGCGCCATCTAC	0.905 RPM ratio (pull-down/input)
GATGATTGTTCTCCCAGCTGATGAATTGTACTGGTCGAGTAAACAAATTTTCCTAATCTTTCTGTTCAAGCGCCATCTAC	0.846 RPM ratio (pull-down/input)
GATGATTGTTCTCCCAGCTGATGAATTTGTTGCCTCGAGTAAACAAATTTTCCTAATCTTTCTGTTCAAGCGCCATCTAC	1.55 RPM ratio (pull-down/input)
GATGATTGTTCTCCCAGCTGATGAATTATTATGTTCGAGTAAACAAATTTTCCTAATCTTTCTGTTCAAGCGCCATCTAC	1.69 RPM ratio (pull-down/input)
GATGATTGTTCTCCCAGCTGATGAATTTCTGTTCTCGAGTAAACAAATTTTCCTAATCTTTCTGTTCAAGCGCCATCTAC	0.903 RPM ratio (pull-down/input)
GATGATTGTTCTCCCAGCTGATGAATTGTATATCTCGAGTAAACAAATTTTCCTAATCTTTCTGTTCAAGCGCCATCTAC	1.36 RPM ratio (pull-down/input)
GATGATTGTTCTCCCAGCTGATGAATTCAGGTTATCGAGTAAACAAATTTTCCTAATCTTTCTGTTCAAGCGCCATCTAC	0.998 RPM ratio (pull-down/input)

Source: PMC12820563, “FoxP3 forms a head-to-head dimer in vivo and stabilizes its multimerization on adjacent microsatellites”
